# Measured values taken from PubChem BioAssay AID485294 (National Center for Advancing Translational Sciences (NCATS), 2010).
# Out of some 370,000 compounds screened, about 150 (0.041%) were called active. Inconclusive results, whose numbers are uncertain, are shown with a selection of clear calls. Calls come from the whole dose curve; as a rule, active = well fitted inhibition curve with a large enough effect; inconclusive = small, poorly fitted or top-dose-only effect; inactive = flat fitted curve, though single readings scatter. No potency is given beside an inconclusive call; the fits are too rough.
# Biological target: Beta-lactamase (Escherichia coli (strain K12)) (UniProt P00811)
# Sequence of UniProt P00811 (P00811 whole entry, looked up): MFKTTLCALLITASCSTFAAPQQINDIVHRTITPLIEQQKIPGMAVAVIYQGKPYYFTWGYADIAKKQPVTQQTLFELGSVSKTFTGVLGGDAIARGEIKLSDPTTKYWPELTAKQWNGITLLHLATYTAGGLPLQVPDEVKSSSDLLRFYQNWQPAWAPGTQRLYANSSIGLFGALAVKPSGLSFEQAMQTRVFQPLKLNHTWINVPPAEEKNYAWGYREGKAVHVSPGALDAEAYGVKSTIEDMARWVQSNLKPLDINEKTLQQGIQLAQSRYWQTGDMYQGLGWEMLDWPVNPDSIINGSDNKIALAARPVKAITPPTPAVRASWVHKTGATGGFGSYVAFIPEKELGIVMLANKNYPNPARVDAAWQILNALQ
# Test: qHTS Inhibitors of AmpC Beta-Lactamase (assay with detergent); note: nearly all actives have a fitted effect of over 25% in size;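 for activity change, negative = inhibition: 0% = no-compound wells and -100% = no-enzyme wells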
# Conditions: AmpC hydrolysis of nitrocefin, absorbance 480 nm, 0.01% Triton; activity change, negative = inhibition: at 114 µM (top of the series)
# Procedure, shortened: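 AmpC (5.3 nM in the dispensed reagent) in 20 mM phosphate pH 7.0 with 0.01% (detergent screen) or 0.0001% Triton X-100 was preincubated with compounds for 15 min at room temperature. Nitrocefin was then added from an 800 uM solution, and hydrolysis was followed at 480 nm.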
# Potency is the fitted concentration of half-maximal effect; tags give direction and shape of the fitted curve.
SMILES,Potency,"activity change, negative = inhibition"
O=C(NC1CC1)c1ccc(CN(c2ccccc2)S(=O)(=O)c2ccccc2)cc1,"inconclusive [inhibitor, full curve, poor fit]",
Cc1c(C)n2c(SCC(=O)NC3CCCCC3)nnc2[nH]c1=O,"inconclusive [inhibitor, full curve, poor fit]",
COC(=O)CCCC(=O)Nc1ccc(Cl)c(Cl)c1,"inconclusive [inhibitor, partial curve, poor fit]",
COC(=O)c1cc2oc3ccccc3c2n1Cc1nc(-c2cccc(Cl)c2)oc1C,,inactive: 25.9%
CN(C)c1ccc(C=C2C(=O)OC(C)(C)OC2=O)cc1,"inconclusive [inhibitor, full curve, poor fit]",
Cc1ccc(CNC(=O)[C@H]2C[C@@H]2[C@H](NP(=O)(c2ccccc2)c2ccccc2)c2ccccc2)o1,"inconclusive [inhibitor, partial curve]",
C=CCn1c(CSc2ccccc2[N+](=O)[O-])n[nH]c1=S,,inactive: -7.76%
CCc1ccc(NC(=O)C2=CC=CN3CCS(=O)(=O)N=C23)cc1,"inconclusive [inhibitor, full curve, poor fit]",
CCOC(=O)Cn1cnc2sc(C(=O)OC)c(C)c2c1=O,,inactive: -4.11%
O=C(/C=C/c1ccccc1Cl)c1cccnc1,,inactive: 3.84%
Cc1cccc(C(=O)NCC(=O)N2CCCCCCC2)c1,"inconclusive [inhibitor, single point]",
COc1ccc(S(=O)(=O)N2CCOCC2)cc1NC(=O)c1cc2ccccc2o1,"inconclusive [inhibitor, full curve, poor fit]",
c1ccc(Cn2nnc3c(N4CCc5ccccc5C4)ncnc32)cc1,"inconclusive [inhibitor, full curve, poor fit]",
COc1cccc(C(=O)NCCC(=O)NCc2cc(=O)n(C)c(=O)n2C)c1,"inconclusive [inhibitor, full curve, poor fit]",
Cc1cccc(NCc2nc3ccccc3n2Cc2ccccc2)c1,"inconclusive [inhibitor, full curve, poor fit]",
COC(=O)c1ccc(NC(=O)NCCCl)cc1,"inconclusive [inhibitor, partial curve, poor fit]",
Cc1cccc(NC(=S)NCc2cccs2)c1C,,inactive: 3.38%
COc1ccc(OC(=O)NCCc2ccccc2)cc1,,inactive: 4.92%
CC(C)C(NC(=O)c1ccc(C(C)(C)C)cc1)C(=O)N1CCC(C(N)=O)CC1 (stereo unspecified),"inconclusive [inhibitor, full curve, poor fit]",
O=C(CN1CCOCC1)Nc1ccc(N2CCN(c3ccccc3)CC2)c(F)c1,"inconclusive [inhibitor, partial curve]",
COc1ccccc1CNC(=O)C1CCC(CNc2c(N3CCOCC3)c(=O)c2=O)CC1 (stereo unspecified),"inconclusive [inhibitor, partial curve, poor fit]",
N#CC1=C(N)N(c2ccccc2)C2=C(C(=O)CCC2)C1c1cccs1 (stereo unspecified),"inconclusive [inhibitor, full curve]",
CCOC(=O)c1ccc(NC(=O)c2ccc3c(c2)c(C)c(C)n3Cc2ccc(F)cc2)cc1,,inactive: 1.02%
CCOc1ccc(N2C(=O)CC(NCCNc3ccc([N+](=O)[O-])cn3)C2=O)cc1 (stereo unspecified),,inactive: -6%

SMILES,Potency,"activity change, negative = inhibition"
COc1ccc(-n2nnnc2SCC(=O)c2cccc(OC)c2)cc1,"inconclusive [inhibitor, full curve, poor fit]",
CC(C)OP(=O)(OC(C)C)C(Nc1ccccc1)c1cccc2c1OCO2 (stereo unspecified),,inactive: -8.23%
CCOC(=O)N1CCN(S(=O)(=O)c2ccc(F)c(C(=O)Nc3cccc(Cl)c3C)c2)CC1,,inactive: -13.7%
Cn1cc(Br)c(C(=O)Nc2ncc(Br)s2)n1,,inactive: -6.17%
CN(C)c1ccc(C=C2C(=O)NC(=O)NC2=O)cc1[N+](=O)[O-],,inactive: 5.68%
COc1ccc(-c2nnc(SCCC(=O)O)n2-c2ccccc2)cc1,"inconclusive [inhibitor, single point]",
O=c1c2ccccc2nc(-c2ccco2)n1/N=C/c1ccccc1O,"inconclusive [inhibitor, full curve, poor fit]",
N#CCCNc1ccc(OCCC#N)cc1,"inconclusive [inhibitor, partial curve]",
COc1ccc(N(C)S(=O)(=O)c2ccc3c(c2)CCN3C(=O)C2CC2)c(OC)c1,,inactive: 2.65%
CCN(CC)c1ccc(C2Nc3cccc4cccc(c34)N2)c(O)c1,,inactive: -3.08%
CCc1nnc(NS(=O)(=O)c2ccc(NC(=S)NC(=O)/C=C/c3ccccc3)cc2)s1,"inconclusive [inhibitor, full curve, poor fit]",
CCOc1cc(C)c(C(C)C)cc1S(=O)(=O)N1CCOCC1,"inconclusive [inhibitor, full curve, poor fit]",
Cc1cc(C)cc(NC(=O)C2CCCN2S(=O)(=O)c2ccc3c(c2)C(C)(C)C(=O)N3C)c1 (stereo unspecified),"inconclusive [inhibitor, full curve]",
Cn1c(C(=O)N2CCc3ccccc3C2)cc2c(=O)n3ccccc3nc21,"inconclusive [inhibitor, full curve, poor fit]",
COc1cc(/C=N\NC(=O)c2ccc(Cl)cc2)ccc1Oc1ccc([N+](=O)[O-])cn1,,inactive: -1.07%
Cc1cc(OCc2nnc(SCC(=O)OC3CCCCC3)o2)ccc1Cl,"inconclusive [inhibitor, partial curve]",
O=C(COC(=O)c1ccccn1)c1ccc(Br)cc1,"inconclusive [inhibitor, full curve, poor fit]",
CCCCCCCCCCOC(=O)C[N+](C)(C)C/C=C(/C)Cl,,inactive: 3.67%
Cc1cccn2c(/C=N/OCc3cccc(F)c3)c(-c3ccc(Cl)cc3)nc12,,inactive: -5.52%
O=C(NCc1ccccc1)c1ccc2c(c1)C(=O)N(Cc1cccnc1)C2=O,,inactive: -8.21%
CCCn1nc(C(=O)Nc2ccc(-n3cnnn3)cc2)c2ccccc2c1=O,,inactive: -19.7%
CCC(=O)Nc1ccc(NC(=O)/C=C/c2ccc(Cl)cc2)cc1,,inactive: -2.9%
O=C1/C(=C/c2cccs2)NC(=S)N1C1CC1,,inactive: -0.425%
Cc1cc(Nc2cc(C)on2)n2ncnc2n1,"inconclusive [inhibitor, full curve, poor fit]",

SMILES,Potency,"activity change, negative = inhibition"
COc1ccccc1C1C(C#N)=C(N)Oc2cc(C)n(CCCn3ccnc3)c(=O)c21 (stereo unspecified),,inactive: 0.797%
O=c1c2ccccc2oc2nc(C3CCCCC3)n(Cc3ccco3)c(=O)c12,"inconclusive [inhibitor, full curve, poor fit]",
O=C(/C=C/c1cccs1)N1CCC2(CC1)Oc1ccc(Cl)cc1C(=O)C21CC(c2cccnc2)=NO1 (stereo unspecified),,inactive: -6.83%
CCCCP(=O)(CCCC)Cc1ccccc1,"inconclusive [inhibitor, full curve, poor fit]",
O=C(CCSc1ccc(Cl)cc1)N1CCN(c2ncccn2)CC1,"inconclusive [inhibitor, full curve]",
O=C(CSCC(=O)NC1CC1)Nc1ccc2ccccc2c1,"inconclusive [inhibitor, full curve, poor fit]",
CCOC(=O)C1CCCN(C(=O)c2ccc3oc(Cc4ccccc4)nc3c2)C1 (stereo unspecified),"inconclusive [inhibitor, full curve, poor fit]",
COc1cc(OC)c(NC(=O)c2c(C)nn(-c3ccc(C)cc3)c2-n2cccc2)cc1Cl,,inactive: -7.45%
Cn1c(=O)n(C)c2cc(N3CCCCC3)c(NC(=O)c3ccc(Cl)cc3)cc21,,inactive: -7.91%
NS(=O)(=O)c1ccc(NC(=S)NCc2ccc(Cl)cc2)cc1,,inactive: -5.42%
Cc1cccc2nc(-c3cccc(NC(=O)c4ccc(Cl)cc4)c3)cn12,"inconclusive [inhibitor, full curve, poor fit]",
O=C(OCc1cccs1)c1ccccc1NS(=O)(=O)c1ccc2c(c1)OCCO2,"inconclusive [inhibitor, partial curve, poor fit]",
COc1ccc(C2/C(=C(/O)c3ccccc3)C(=O)C(=O)N2CCO)cc1 (stereo unspecified),"inconclusive [inhibitor, full curve, poor fit]",
COc1ccc(C(=O)NC2=NCCS2)c(OC)c1,"inconclusive [inhibitor, single point]",
O=C(c1ccccc1[N+](=O)[O-])N1CCCN(C(=O)c2ccccc2[N+](=O)[O-])CC1,"inconclusive [inhibitor, partial curve]",
[Cl][Pt+2][Cl].[NH-]C1CCCCC1[NH-] (stereo unspecified),"inconclusive [inhibitor, full curve, poor fit]",
Cc1cc(Cl)c(S(=O)(=O)N2CCN(c3ccc(F)cc3)CC2)cc1OCC(N)=O,"inconclusive [inhibitor, full curve, poor fit]",
Cc1cc(C)nc(SCc2nc3ncccn3c2Br)n1,"inconclusive [inhibitor, partial curve, poor fit]",
COc1ccc(OCCOc2ccc(C)nc2[N+](=O)[O-])cc1,,inactive: -0.499%
C(=N\Nc1nc(-c2ccccc2)cs1)/c1ccco1,,inactive: -10.1%
CCn1nnc2cc(C(=O)Nc3cc(S(C)(=O)=O)ccc3Cl)ccc21,"inconclusive [inhibitor, full curve, poor fit]",
O=C(/C=C/c1ccc2c(c1)OCO2)NCCSCc1cccc(Cl)c1,,inactive: -0.442%
C=CCN1C(=O)c2ccc(C(=O)OCC(=O)Nc3ccc(S(N)(=O)=O)cc3)cc2C1=O,"inconclusive [inhibitor, partial curve, poor fit]",
